Measured values as given in the supplement of paper PMC4604168 (melanoma cell lines).
This is one part of the list. Single values are uncertain, as repeats are few or missing.
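Note: cells treated in 1,536-well plates, then fixed and DAPI-stained, with nuclei counted from automated high-throughput microscope images.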

What follows are compounds tested on A2058 (assay: cell count relative to DMSO control; melanoma cells; higher = more viable cells). Details: library dose: standard library concentration; 72 h.
`OCc1c[nH]c2ccccc12` [Indole-3-carbinol] + Cc1cc([N+](=O)[O-])ccc1NS(=O)(=O)c1cc(Cl)ccc1Cl [FH535] (first compound 4 µM, partner dose 5 µM) gave a cell count of 92.7%.
`O=C(CCCCCCC(=O)Nc1ccccc1)NO` [vorinostat] + O=c1cc(-c2cccc3c2Sc2ccccc2S3)oc(N2CCOCC2)c1 [KU55933] (first compound 0.4 µM, partner dose 5 µM) was tested, and the cell count was 85.1%.
For `C#Cc1cccc(Nc2ncnc3cc(OCCOC)c(OCCOC)cc23)c1` [erlotinib] + Oc1cc(-c2nc(-c3ccccc3)[nH]c2-c2ccncc2)ccc1Cl [L779450] (first compound 4 µM, partner dose 1 µM), the cell count was 75.8%.
`Cn1c(Nc2ccc(C(F)(F)F)cc2)nc2cc(Oc3ccnc(-c4ncc(C(F)(F)F)[nH]4)c3)ccc21` + Oc1cc(-c2nc(-c3ccccc3)[nH]c2-c2ccncc2)ccc1Cl [L779450] (first compound 0.4 µM, partner dose 1 µM) gave a cell count of 57.7%.
With `COCC[n+]1c2c(n(Cc3cnccn3)c1C)C(=O)c1ccccc1C2=O` + O=C(O)C(=O)Nc1sc2c(c1C(=O)O)CCNC2 [TCS401] (first compound 0.002 µM, partner dose 8.33333 µM) the cell count was 20.4%.
With `Cn1c(Nc2ccc(C(F)(F)F)cc2)nc2cc(Oc3ccnc(-c4ncc(C(F)(F)F)[nH]4)c3)ccc21` + O=C(O)C(=O)Nc1sc2c(c1C(=O)O)CCNC2 [TCS401] (first compound 0.4 µM, partner dose 8.33333 µM) the cell count was 76.5%.
`Nc1cccc2c1CN(C1CCC(=O)NC1=O)C2=O` (stereo unspecified) [lenalidomide] + COc1ccc2c(c1)CCC1C2CCC2(C)C(NCCCCCCN3C(=O)C=CC3=O)CCC12 [U73122] (first compound 5 µM, partner dose 2 µM) gave a cell count of 80.1%.
`Cn1c(Nc2ccc(C(F)(F)F)cc2)nc2cc(Oc3ccnc(-c4ncc(C(F)(F)F)[nH]4)c3)ccc21` + O=c1cc(-c2cccc3c2Sc2ccccc2S3)oc(N2CCOCC2)c1 [KU55933] (first compound 0.4 µM, partner dose 5 µM) was tested, and the cell count was 78.9%.
With `O=C(CCCCCCC(=O)Nc1ccccc1)NO` [vorinostat] + Cn1cc(/C=C2\C(=O)Nc3cccnc32)c2ccccc21 [GW441756] (first compound 0.4 µM, partner dose 2 µM) the cell count was 107%.
Work on `Clc1ccc(Nc2nnc(Cc3ccncc3)c3ccccc23)cc1` [vatalanib] + c1cc(-c2cnn3cc(-c4ccc(OCCN5CCCCC5)cc4)cnc23)ccn1 [Dorsomorphin] (first compound 10 µM, partner dose 2 µM) yielded a cell count of 58.5%.
With `OCc1c[nH]c2ccccc12` [Indole-3-carbinol] + Oc1nc(-c2ccc(C(F)(F)F)cc2)nc2c1CSCC2 [XAV939] (first compound 4 µM, partner dose 10 µM) the cell count was 69.5%.
For `C#Cc1cccc(Nc2ncnc3cc(OCCOC)c(OCCOC)cc23)c1` [erlotinib] + COc1ccc(COc2ccc(Cc3cnc(N)nc3N)cc2OC)cc1 [GW2580] (first compound 4 µM, partner dose 5 µM), the cell count was 90.1%.
`O=C(CCCCCCC(=O)Nc1ccccc1)NO` [vorinostat] + COC(=O)c1sccc1S(=O)(=O)Nc1ccc(Nc2ccccc2)cc1OC [GSK0660] (first compound 0.4 µM, partner dose 5 µM) showed a cell count of 90.4%.
`Nc1cccc2c1CN(C1CCC(=O)NC1=O)C2=O` (stereo unspecified) [lenalidomide] + COc1ccc(-c2ccc3c(N4CCOCC4)nc(N4C[C@@H](C)O[C@@H](C)C4)nc3n2)cc1CO [KU0063794] (first compound 5 µM, partner dose 0.1 µM) showed a cell count of 100%.
`O=C(CCCCCCC(=O)Nc1ccccc1)NO` [vorinostat] + COc1ccc2c(c1)CCC1C2CCC2(C)C(NCCCCCCN3C(=O)C=CC3=O)CCC12 [U73122] (first compound 0.4 µM, partner dose 2 µM) gave a cell count of 57%.
Compound `Cn1c(Nc2ccc(C(F)(F)F)cc2)nc2cc(Oc3ccnc(-c4ncc(C(F)(F)F)[nH]4)c3)ccc21` + CCCCCCCCCCCC1=C(O)C(=O)C=C(O)C1=O [Embelin] (first compound 0.4 µM, partner dose 6 µM) has a cell count of 72.3%.
